Reference: PubChem BioAssay AID493208 (National Center for Advancing Translational Sciences (NCATS), 2011)
The whole screen tested about 44,000 compounds, of which about 340 (0.77%) were called active. Inconclusive results (about 5%) are left out. Calls follow the shape of the dose curve; as a rule, active = well fitted inhibition curve with a large enough effect; inconclusive = small, poorly fitted or top-dose-only effect; inactive = flat fitted curve, though single readings scatter. Some of the results follow.

Experiment: Acumen qHTS Assay for Inhibitors of the mTORC1 Signaling Pathway in MEF (Tsc2-/-, p53-/-) Cells: Sytravon;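 also: plate controls were DMSO for no effect and rapamycin for full effect; nearly all actives have a fitted effect of over 50% in size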
Conditions: phospho-rpS6 immunofluorescence/PI, 24 h; series mostly up to 38.3 µM; activity change, negative = inhibition: at the top concentration
In short: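 Compounds act on Tsc2-/-, p53-/- fibroblasts carrying an empty vector for 24 h before fixation and dual staining for phospho-S6 and DNA (propidium iodide). Values are percentages of cells above a rapamycin-defined pS6/PI threshold.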

Activity change, negative = inhibition, inactive:
O=C(c1ccc2c(c1)N(Cc1ccccc1)C(=O)c1ccccc1S2(=O)=O)N1CCN(c2ccccc2)CC1 1.51%
COc1ccc(OC)c(C2NC(=O)NC(C)=C2C(=O)Nc2cc(C)cc(C)c2)c1 (stereo not drawn) 15.9%
O=C(Nc1c(C(=O)N2CCN(c3ccc(F)cc3)CC2)oc2ccccc12)c1c(F)cccc1F -10.2%
COc1ccc(C2CC(=O)c3cc(-c4nc(-c5cccc([N+](=O)[O-])c5)cs4)c(=O)n(-c4ccc(C)c(C)c4)c3C2)cc1 (stereo not drawn) -1.86%
CC(C)Oc1ccc(C(=O)Nc2ccc3c(c2)CCCN3C(=O)c2cccs2)cc1 0%
CCC(Sc1nc2ccccc2c2nc(CCn3cncc3C)nn12)C(=O)Nc1cccc(OC)c1 (stereo not drawn) -23.3%
CCC1CCCCN1CCCNC(=O)CN1C(=O)c2cccnc2Oc2ccc(Cl)cc21 (stereo not drawn) 0.721%
COc1ccc(Cn2c(CNC(=O)c3ccc(N(C)C)cc3)nc3cccnc32)cc1 0.995%
Cc1cc(C)c2nc(N3CCCC(C(=O)NCc4cccc(Br)c4)C3)sc2c1 (stereo not drawn) -0.289%
Fc1ccc(Nc2nc3ccccc3c3nncn23)c(Cl)c1 0.167%
Cc1ccc2oc(=O)c3cc(C(=O)Nc4ccc(F)cc4F)sc3c2c1 -11.7%
COc1ccc(CCNC(=O)c2ccc(Cn3c(=O)c4ccccc4n(Cc4cc(C)ccc4C)c3=O)cc2)cc1OC -17%
Cc1ccc(NC(=O)c2oc3ccc(S(=O)(=O)N4CCCCCC4)cc3c2C)cc1Cl -1.25%
CCOC(=O)c1ccc(N2CCN(c3ccccc3F)CC2)c(NC(=O)Nc2ccc(Cl)c(Cl)c2)c1 3.39%
CC(C)CSc1nnc(-c2ccccc2)c(-c2ccccc2)n1 -7.68%
CCCN1C(=O)c2[nH]nc(-c3ccccc3O)c2C1c1ccc(OCc2ccccc2)c(OCC)c1 (stereo not drawn) 3.76%
Cc1ccc(Cl)cc1NC(=O)CN1C(=O)c2cccc3cccc1c23 -5.36%
COc1ccc(C)c2sc(N(Cc3cccnc3)C(C)=O)nc12 -1.48%
COc1ccc(-c2nc3ccccc3s2)cc1NC(=O)COc1ccccc1C -2.25%
COc1ccccc1OCCn1c(NC(=O)c2ccc(Cl)cc2)nc2ccccc21 0.357%
Cc1ccc(N(CC(=O)N2CCN(c3ccccc3F)CC2)S(=O)(=O)c2c(C)noc2C)cc1 -6.77%
Cc1ccc(CCNC(=O)C(NS(=O)(=O)c2ccc3c(c2)oc(=O)n3C)C(C)C)cc1 (stereo not drawn) -2.67%
CCOC(=O)CSc1ccc2nnc(CCNS(=O)(=O)c3ccccc3)n2n1 3.15%
COc1cc2c(cc1OC)C(c1ccc(F)cc1)N(c1cccc(C#N)c1)C(=O)C2 (stereo not drawn) 1.77%
O=C(Nc1cccc(C(=O)OCc2cc(=O)n3nc(C4CC4)sc3n2)c1)c1cccc(F)c1 0%
CCOc1ccc(-n2c(SCC(=O)NCC3CCCO3)nc3c([nH]c4ccccc43)c2=O)cc1 (stereo not drawn) 0.209%
COc1ccc(Cn2ccn(Cc3cccc(C)c3)c(=O)c2=O)cc1 4.95%
COc1cc2c(cc1OC)C(COc1ccc3c(C)cc(=O)oc3c1)N(C(=O)c1cccc(C)c1)CC2 (stereo not drawn) 1.26%
Cn1c(=O)c(=O)n(C)c2cc(S(=O)(=O)N3CCCC3C(=O)Nc3ccccc3F)ccc21 (stereo not drawn) -1.79%
O=C(NCCc1ccccc1)c1ccc2c(c1)N(Cc1c(F)cccc1Cl)C(=O)CS2 -16.4%
Cc1ccc(N(CC(=O)Nc2cccc(F)c2)S(=O)(=O)c2cccs2)cc1 -5.2%
CNC(=O)C1CCC(Cn2c(=O)c3sccc3n(Cc3ccc(F)cc3)c2=O)CC1 (stereo not drawn) -0.726%
CCc1ccc(NC(=O)CSc2nccn2-c2ccc(OC)cc2)cc1 -17.8%
CC1(C(=O)Nc2cccc(Br)c2)Cc2ccccc2C(=O)O1 (stereo not drawn) -12.1%
CC(=O)N1CCCc2cc(S(=O)(=O)N3CCC(C(=O)NC4CCC(C)CC4)CC3)ccc21 (stereo not drawn) -1.84%
COCCCNC(=O)CCC(=O)N1Cc2cccc(OC)c2Oc2ncccc21 -2.21%
CCn1c(C(=O)NCc2ccccc2C)cc2oc3ccccc3c21 -1.87%
COC(=O)c1ccccc1NC(=O)c1ncoc1-c1ccco1 25.8%
CCCc1cc(=O)oc2c3c(ccc12)OCN(Cc1ccc(OC)cc1)C3 -7.35%
Cc1ccccc1OCCSc1nc2ccc(NC(=O)c3ccccc3)cc2s1 -2.3%
COC(=O)Cn1nc(C)c2c(C)n(-c3ccccc3)nc2c1=O -2.13%
COc1cccc2c1cc1c(=O)n(CC(=O)NC3CCCCC3)nc(C)n12 2.42%
Cc1ccc(C(=O)Nc2cccc(OCc3cc(=O)n4c5c(sc4n3)CCCC5)c2)cc1 -2.91%
COc1cc(C(=O)N2CCN(c3ccc(Nc4ccc(C)cc4)nn3)CC2)cc(OC)c1OC -7.58%
NC(=O)CSc1oc(-c2ccco2)nc1S(=O)(=O)c1ccc(Cl)cc1 3.04%
Cc1ccc(NC(=O)c2cc3cc(C)ccc3n2C)cc1 -1.67%
CCOC(=O)c1ccc(NC(=O)Cn2c(=O)cc(C)c3c(C)nn(-c4cccc(F)c4)c32)cc1 6.21%
CCCc1cnc2c(c1SCC(=O)N1CCC(C)CC1)c(=O)n(C)c(=O)n2C 0.132%
